These results are taken from the RNAGym collection of RNA variant scans (doi:10.1073/pnas.2313332121).

This sample is rich in variants without activity. A value given as a limit tells only on which side of the number the result lay.

The labels stand for the following.
B1: TPR 5TU (parent)
chain: GGAUCUUCUCGAUCUAACAAAAAAGACAAAUCUGCCACAAAGCUUGAGAGCAUCUUCGGAUGCAGAGGCGGCAGCCUUCGGUGGCGCGAUAGCGCCAACGUUCUCAACUAUGACACGCAAAACGCGUGCUCCGUUGAAUGGAGUUUAUCAUG

This series covers variants of B1. In words: polymerase ribozyme fitness, log enrichment relative to wild type (log ratio); higher = more active; in vitro selection for triplet polymerase activity. Summed up:
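A single round of triplicate in vitro selection, including frozen incubation at −7 °C, was applied to PCR-built, transcribed mutant libraries of each subunit of a heterodimeric triplet polymerase ribozyme. Illumina sequencing of input and output libraries retained genotypes with ≥10 input reads and ≥1 read per output. Fitness is the base-2 logarithm of genotype enrichment divided by wild-type enrichment, from inverse-variance-weighted replicate averages.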
In the case of GGAUCUUCUCGAUCUAACAAAACAGACAAAUCUGCCACAAAGCUUGAGAGCAUCUUCGGAUGCAGAGGCGGCAGCCUUGGGUGGCGCGAUUGCGUCAACGUUCUCAACUAUGACAUGCAAAACGCGUGCUCCGUUGAAUGGAGUUUCUCAUG, the “polymerase ribozyme fitness (log ratio)” value is no more than -4.2.
For GGAUCUUCUCGAUCUAACAAAAGAGACACAUCUGCCACAAAGCUUGAGAGCAUCUUCGGAUGCAGAGGCGGCAGCCUUCGGUGGCGAGAUAGCGCCAACGUUCUCAACUAUGACACGCAAAACGCGUGCUCCGUUGAAUGGAGAUUAUCAUG, the “polymerase ribozyme fitness (log ratio)” value is no more than -4.2.
For the variant GGAUCUUCUCGAUCUAACAAAACAGACAAAUCUGCCACAAAGCUUGAGAGCAUCAUCGGAUGCAGAGGCGGCAGCCUUCGGUGGCGGGAUAGCGCCAACGUUCUCAACUAUGAGACGCAAAACGCGUGCUCCUUUUAAUGGAGUUUAUCAUG, the “polymerase ribozyme fitness (log ratio)” value is no more than -4.2.
GGAUCUUCUCGAUCUAACAAAAGAGACAAAUCUGCCACACAGCUUGAGAGCAUCUUCGGAUGCAGAGGCGGCAGCCUUCGGUGGCGCGAUAGCGCCAACGUUCUCAACUAUGACACGCAAAACGCGUGCUCCGUUGAAUGGAGUUGAUCAUG: the “polymerase ribozyme fitness (log ratio)” value is no more than -4.2.
As to GGAUCUUCUCGAUCUAACAAAACAGACAAAUCUGCCACAAAGCUUGAGAGCAUCUUCGGAUGCAGAGGCGGCAGCCUUCGGUGCCGCGAUAGCGCAAACGUUCUCAACUAUGACACGCAAAACGCGUGCUCCGUUAAAUGGAGAUUAUCAUG, the “polymerase ribozyme fitness (log ratio)” value was no more than -4.2.
Consider GGAUCUUCUCGAUCUAACAAAACAGACAAAUCUGCCACAAAGCUUGAGAGCAUCUUCGGAUGCAGAGGCGGCAGCCUUCGGUGGCGCGAUAGCGCCAACGUUUUCAACUAUGACACGCAAAACGCGUGCUCCGUUGAAUGGAGUUUAUCAUG, for which the “polymerase ribozyme fitness (log ratio)” value was no more than -4.2.
On to GGAUCUUCUCGAUCUAACAAAACAGACAAAUCUGCCACAAAGCAAGAGAGCAUCUUCGGAUGCAGAGGCGGCAACCUUCGGUGGCGCGAUGGCGCCAACGUUCUCAACUAUGACACGCAAAACGCGUGCUCCGUUGAAUGGAGUUUAUCAUG, for which the “polymerase ribozyme fitness (log ratio)” value is no more than -4.2.
Regarding GGAUCUUCUCGAUCUAACAAAACAGACAAAUCUGCCACAAAGCUUGAGAGCAUCUUCGGAUGCAGAGGCGGCAGCUUUCGGUGGCGCGAUAGUGCCAACGUUCUCAACUAUGACACGCAAAACGCGUGCUCCGUUGAAUGGAGUUUAUCAUG, the “polymerase ribozyme fitness (log ratio)” value is no more than -4.2.
Then GGAUCUUCUCGAUCUAACAAAACAGACAAAUCUGCCACAAAGCUUGAGAGCAACUUCGGAUGCAGAGGCGGCAGCCUUCGGUCGCGCGAUGGCGCCAACGUUCUCAACUAUGACACGCAAAACGCGUGCUCCGUUGAAUGGAGUUUUUCAUG, with no more than -4.2.
Then GGAUCUUCUCGAUCUAACAAAAGAGACAAAUCUGCCACACAGCUUGAGAGCAUCUUCGGAUGCAGAGGCGGCAGCCUUCGAUGGCGCGAUAGCGCCAACGUUCUCAACUAUGACACGCAAAACGCGUGCUCCGUUGAAUGGAGUCUAUCAUG, with -3.98.
For the variant GGAUCUUCUCGAUCUAACAAAACAGACAAAGCUGCCACAAAGCUUGAGAGCAUCUUCGGAUGCAGAGGCGGCAGCCUUCGGUGGCGCGAUAGCGCCAACGUUCUCAAGUAUGACGCGCAAAACGCGUGCUCCGUUGAAUGGAGUUUAUCAUG, the “polymerase ribozyme fitness (log ratio)” value was no more than -4.2.
Regarding GGAUCUUCUCGAUCUAACAAAACAGACAAAUCUGCCACAAAGCUUGAGAGCAUCUUCGGAUGCAGAGGCGGCAGCCUUCGGUGGCGUGAUAGCGCCAACGUUCUCAACUAUGACACGCAAAACGCGUGCUCCGUUGAAUGGAGUUUAUCAUG, the “polymerase ribozyme fitness (log ratio)” value is -3.89.
Take GGAUCUUCUCGAUCUAACAAAACAGACAAAUCUGCCACAAAGCUUGAGAGCAUCUACGGAUGCAGAGGCGGCAGCCUUCGGUGUAGCGAUAGCGCCAACGUUCUCAACUAUGACACGCAAAACGCGUGCUCCGUUGAAUGGACUUUAUCAUG: the “polymerase ribozyme fitness (log ratio)” value was no more than -4.2.
Then GGAUCUUCUCGAUCUAACAAAACAGACAAAUCUGCCACAAAGCUUGAGAGCAUCUUCGGAUGCAGAGGCGGCAGCCUUCGGUGGCGCGAUAGUGCCAACGUUCUCAACUAUGACACGCAAAACGCGUGCUCCGUUGAAUGUAGUUUAUCAUG, with no more than -4.2; and GGAUCUUCUCGAUCUAACAAAACAGACAAAUCUGCCACAAAGCUUGAGAGCAUCUUCGGAUGCAGAGGCGGCAGCCUUCCGUGGCGGGAUAGCGCCAACGUUCUCAACUAUGACACGCAAAACGCGUGCUCCGUUGAAUGGAGUUGAUCAUA, with no more than -4.2; and GGAUCUUCUCGAUCUAACAAAAGAGACAAAUCUGCCACAAAGCUUGAGUGCAUCUUCGGAUGCAGAGGCGGCUGCCUUCGGUGGCGCGAUUGCUCCAUCGUUCUCAACUAUGACACGCGAAACGAGUGCUCCGUUGAAUGGAGUUUAUCAUG, with no more than -4.2.
As for GGAUCUUCUCGAUCUAACAAAACAGACAAAUCUGCCACAAAGCUUGAGAGCAUCUUCGGAUGCAGAGACGGCAGCCUUCGGUGGCGCGAUAGCGCCAACGUUCUCAACUAUGACACGCAAAACGCGUGCUCCGUUGAAUGGAGUUUAUCAUG, the “polymerase ribozyme fitness (log ratio)” value was no more than -4.2.
Turning to GGAUCUUCUCGAUCUAACAAAACAGACAAAUCUGCCACAAAGAUUGAGAGCAUCUUCGGAUGCAGAGGCGGCAGCCUUCGGUGGCGCGAUAGCGGCAACGUUCUCAACUAUGACACGCAAAACGCGUGCUCCGUUGAAUGGAGUUUAUCAUG, the “polymerase ribozyme fitness (log ratio)” value is no more than -4.2.
As to GGAUCUUCUCGAUCUAACAAAAGAGACAAAUCUGCCACCAAGCUUGAGAGCAUCUUCGGAAGCAGAGGCGGCAGCCUUCGGUGACGCGAUAGCGCCAACGUUCUCAACUAUGACACGCAAAACGCGUGCUCCGUUGAAUGGUGUUUAUCAUG, the “polymerase ribozyme fitness (log ratio)” value is no more than -4.2.
